Reference: publication PMC5700166
Only a part is listed here, and it is no random draw. The list includes weakly bound sequences.

Legend:
Test in all cases: protein-binding microarray (PBM)
Settings in all cases: PBM: ~300 nM protein, 6 mM HEPES pH 7.8, 80 mM KCl, 0.5 mM EDTA, 0.5 mM EGTA, 6% glycerol, 35 ng/ul poly-dIdC, 1% milk, 1 h, room temperature; Ap Aiptasia and Nv Nematostella (sea anemones) / Co Capsaspora / Aq Amphimedon (sponge) / Dm Drosophila / Hu human; RHD is the Rel homology domain; high values mean tight binding; most listed sequences are background and not binding sites; double strand, one strand shown
[1] = target: T1, GST-Ap-NF-kB RHD (UniProt A0A913YAJ5)
T1 sequence: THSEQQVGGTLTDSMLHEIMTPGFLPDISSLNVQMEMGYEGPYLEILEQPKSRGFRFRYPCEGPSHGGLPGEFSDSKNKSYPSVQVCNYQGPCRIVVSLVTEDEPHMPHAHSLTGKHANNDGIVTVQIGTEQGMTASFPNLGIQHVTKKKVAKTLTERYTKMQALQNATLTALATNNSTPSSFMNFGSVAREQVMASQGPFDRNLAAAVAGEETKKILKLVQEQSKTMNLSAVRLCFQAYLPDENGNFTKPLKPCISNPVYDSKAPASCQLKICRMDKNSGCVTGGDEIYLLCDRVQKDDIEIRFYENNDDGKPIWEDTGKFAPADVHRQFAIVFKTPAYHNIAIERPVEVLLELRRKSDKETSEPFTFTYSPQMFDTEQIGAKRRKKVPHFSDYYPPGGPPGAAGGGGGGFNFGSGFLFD

[2] = target: T2, GST-Nv-NF-kB (Cys allele) (UniProt E5G601)
T2 sequence: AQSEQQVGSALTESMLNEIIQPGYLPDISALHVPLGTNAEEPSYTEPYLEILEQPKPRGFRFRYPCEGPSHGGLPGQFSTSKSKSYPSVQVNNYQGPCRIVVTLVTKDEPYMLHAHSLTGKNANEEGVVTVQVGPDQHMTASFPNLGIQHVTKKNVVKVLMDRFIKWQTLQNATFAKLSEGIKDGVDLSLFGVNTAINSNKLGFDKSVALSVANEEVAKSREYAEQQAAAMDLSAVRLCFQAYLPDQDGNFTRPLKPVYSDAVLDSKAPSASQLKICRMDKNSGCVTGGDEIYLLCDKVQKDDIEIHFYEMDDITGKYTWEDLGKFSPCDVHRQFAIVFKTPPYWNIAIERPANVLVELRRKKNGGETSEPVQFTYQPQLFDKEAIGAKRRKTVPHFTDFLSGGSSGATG

[3] = target: T3, GST-Co-NF-kB (UniProt F1ARL5)
T3 sequence: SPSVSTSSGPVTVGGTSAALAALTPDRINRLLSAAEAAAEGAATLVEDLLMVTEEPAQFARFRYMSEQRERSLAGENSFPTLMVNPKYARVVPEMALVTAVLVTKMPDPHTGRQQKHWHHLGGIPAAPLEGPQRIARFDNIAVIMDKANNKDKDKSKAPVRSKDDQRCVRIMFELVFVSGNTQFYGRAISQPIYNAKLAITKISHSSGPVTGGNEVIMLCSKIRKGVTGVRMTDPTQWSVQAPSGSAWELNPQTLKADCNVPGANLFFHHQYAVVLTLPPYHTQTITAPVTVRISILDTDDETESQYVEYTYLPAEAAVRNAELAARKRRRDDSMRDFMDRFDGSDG

[4] = target: T4, GST-Dm-Relish (UniProt Q94527)
T4 sequence: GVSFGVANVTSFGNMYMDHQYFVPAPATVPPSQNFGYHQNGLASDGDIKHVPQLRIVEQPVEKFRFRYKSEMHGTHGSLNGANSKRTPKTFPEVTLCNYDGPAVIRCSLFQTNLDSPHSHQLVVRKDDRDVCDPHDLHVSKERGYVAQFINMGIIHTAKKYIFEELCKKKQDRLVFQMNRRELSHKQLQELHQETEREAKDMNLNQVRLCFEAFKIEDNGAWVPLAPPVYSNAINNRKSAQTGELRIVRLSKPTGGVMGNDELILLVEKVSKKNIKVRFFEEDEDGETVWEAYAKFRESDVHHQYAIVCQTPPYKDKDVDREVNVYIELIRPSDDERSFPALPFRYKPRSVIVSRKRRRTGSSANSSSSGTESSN

[5] = target: T5, GST-Aq-NF-kB (UniProt A9Y5G7)
T5 sequence: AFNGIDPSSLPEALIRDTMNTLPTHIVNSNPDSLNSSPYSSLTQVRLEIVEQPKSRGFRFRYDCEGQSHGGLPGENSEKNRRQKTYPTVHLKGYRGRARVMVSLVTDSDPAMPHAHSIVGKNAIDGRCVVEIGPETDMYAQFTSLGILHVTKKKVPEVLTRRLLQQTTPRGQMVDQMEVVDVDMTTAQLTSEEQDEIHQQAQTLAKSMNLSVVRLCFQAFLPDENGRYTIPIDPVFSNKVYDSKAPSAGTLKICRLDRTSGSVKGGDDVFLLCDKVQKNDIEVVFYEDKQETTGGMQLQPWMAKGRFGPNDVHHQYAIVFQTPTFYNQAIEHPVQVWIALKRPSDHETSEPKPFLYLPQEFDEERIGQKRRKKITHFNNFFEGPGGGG

Sequence | binding signal [1] [z-score] | binding signal [2] [z-score] | binding signal [3] [z-score] | binding signal [4] [z-score] | binding signal [5] [z-score]
CCGATTAACATCATACAACTCCATGATGTTAATCGGGTCTTGATTCGCTTGACGCTGCTG | -0.236 | -0.477 | 0.229 | -0.749 | -0.109
CCGATTAACATCACACAAGAGAATGATGTTAATCGGGTCTTGATTCGCTTGACGCTGCTG | 0.353 | -0.186 | 0.418 | -0.0055 | -0.219
CCGATTAACATCACGATGAATCCTGATGTTAATCGGGTCTTGATTCGCTTGACGCTGCTG | -0.657 | 0.363 | -1.02 | -0.376 | -0.426
CCGATTAACATCACACAAACGTTTGATGTTAATCGGGTCTTGATTCGCTTGACGCTGCTG | -1.16 | -0.528 | -1.72 | 0.424 | -0.546
CCGATTAACATCAACACCTGCCCTGATGTTAATCGGGTCTTGATTCGCTTGACGCTGCTG | 0.667 | -0.108 | 0.258 | -0.227 | 0.12
CCGATTAACATCATGGTTCAATTTGATGTTAATCGGGTCTTGATTCGCTTGACGCTGCTG | -0.266 | -0.324 | -0.0646 | -0.368 | -0.32
CCGATTAACATCAAGATCGCGAATGATGTTAATCGGGTCTTGATTCGCTTGACGCTGCTG | -0.812 | -0.245 | -1.21 | -0.843 | -0.539
CCGATTAACATCACGAACGGTAGTGATGTTAATCGGGTCTTGATTCGCTTGACGCTGCTG | 0.408 | 0.258 | 0.188 | -0.109 | 0.0422
CCGATTAACATCAGGCCCACGTTTGATGTTAATCGGGTCTTGATTCGCTTGACGCTGCTG | 0.2 | -0.419 | -0.795 | -0.00771 | 0.151
CCGATTAACATCATCAACCCGGCTGATGTTAATCGGGTCTTGATTCGCTTGACGCTGCTG | -0.173 | 0.199 | -0.801 | -0.807 | -0.301
CCGATTAACATCAAAAACAGCATTGATGTTAATCGGGTCTTGATTCGCTTGACGCTGCTG | -0.936 | -0.0965 | -0.0286 | -0.151 | -0.495
CCGATTAACATCAAAGGCGGCTCTGATGTTAATCGGGTCTTGATTCGCTTGACGCTGCTG | 0.25 | -0.498 | -1.26 | -1.13 | -0.464
CCGATTAACATCAAATTGCAATATGATGTTAATCGGGTCTTGATTCGCTTGACGCTGCTG | -0.86 | 0.0408 | -0.763 | -0.191 | -0.324
CCGATTAACATCATGCCGTCATATGATGTTAATCGGGTCTTGATTCGCTTGACGCTGCTG | -0.00116 | 0.114 | -0.612 | -0.168 | -0.463
